Test results as given in PubChem BioAssay AID1508624 (National Center for Advancing Translational Sciences (NCATS), 2021).
Screen size: about 48,000 compounds; about 120 (0.25%) were called active. About 4% were inconclusive and are not listed. Calls come from the whole dose curve; as a rule, active = well fitted activation curve with a large enough effect; inconclusive = small, poorly fitted or top-dose-only effect, or another doubt; inactive = no such curve, though single readings can be large or run the other way. The list shows a part of the results.

test: Primary qHTS for Identification of Small Molecule Activators of Huntingtin-Antisense Promoter Activity; conditions: HEK293 HTT-AS promoter firefly luciferase reporter, 24 h; series mostly up to 57.5 µM; activity change, positive = activation: at the top concentration; note: nearly all actives have a fitted effect of over 55% in size
How it was run: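 HEK293 Fluc reporter, 2,500 cells/well, 24 h pre-culture; cpds up to 57.5 uM final, 24 h 37 degrees C; Dual-Glo, 10 min RT; normalized vehicle = 0%, zero RLU = -100%.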

Activity change, positive = activation, inactive:
CC(C)c1ccc2oc(-c3cc(NC(=O)c4cccnc4)ccc3Cl)nc2c1 -25.1%
COc1cc(C(=O)NCC(c2ccc3c(c2)OCO3)N2CCN(C)CC2)cc(OC)c1OC (stereo not given) -7.49%
COc1cccc2c1cc1c(=O)n(CC(=O)NCc3ccc(N(C)C)cc3)nc(C)n12 -5.67%
COc1cccc(NC(=O)c2sc3nc(C)c(C(=O)Nc4ccc(C)cc4C)c(-c4ccc(C)o4)c3c2N)c1 13.9%
CCC1CCCCN1CCCNC(=O)c1c(C)oc2ncn(CC(C)C)c(=O)c12 (stereo not given) -5.57%
O=c1n(Cc2ccc(Cl)cc2)nc2n1-c1ccccc1OC2 11.5%
Cc1cccc(NC(=O)CN2C(=O)CC(c3ccccc3)Sc3ccccc32)c1 (stereo not given) -35.4%
Cc1ccc(NC(=O)CCc2c(C)nc3ncnn3c2C)cc1Cl -7.19%
Cc1ccccc1NC(=O)Cn1nnc(C(=O)NCc2cccs2)c1N -20.5%
Cc1ccc(C)c(CSc2cn(CCNC(=O)c3cccs3)c3ccccc23)c1 -36.5%
CCc1ccc(NS(=O)(=O)c2ccc(NC(=O)N3CCCC3)cc2)cc1 -2.89%
Cc1ccc(CSc2nc3cc(C(=O)NC4CCCC4)ccc3c(=O)n2Cc2ccccc2)cc1 -9.14%
O=C(Nc1cccc(O)c1)c1cc(-c2ccccc2F)no1 19.7%
CCc1ccc(NC(=O)Cn2nnc(C(=O)Nc3ccc(F)cc3)c2N)cc1 3.6%
O=C(NCc1cccc(Cl)c1)c1ccc2c(Cl)c3c(nc2c1)CCCC3 -22%
COc1ccc(CCN2C(=O)N(c3ccc(C)cc3)C(=O)C2CC(=O)Nc2ccc(OC)cc2)cc1 (stereo not given) 0%
COc1cc(NC(=O)c2cc(S(=O)(=O)N3CCC(C)CC3)cn2C)cc(OC)c1OC -9.57%
CCOC(=O)C1CCCN(C(=O)Cn2ncc3c4ccccc4n(C)c3c2=O)C1 (stereo not given) -20.3%
Cc1cccc(NC(=O)CCNS(=O)(=O)c2cccc3nonc23)c1 1.51%
CC(=O)Nc1ccc(S(=O)(=O)NC2(C(F)(F)F)C(=O)Nc3c2c(=O)[nH]c(=O)n3-c2ccc(C)c(C)c2)cc1 (stereo not given) -2.48% [at 11.5 µM, percent change from vehicle, -100% = no light]
COc1cccc(-n2c(-c3ccco3)nc3c(cnn3-c3ccc(C)cc3)c2=O)c1 -27.6%
CCN1c2ccccc2-c2nc(SCC(=O)Nc3c(C)cc(C)cc3C)ncc2S1(=O)=O -16.1%
CCOc1ccc(C(=O)c2cn(Cc3ccc(OC)cc3)c3cc(OC)c(OC)cc3c2=O)cc1 -11.9%
CCOc1ccc(NS(=O)(=O)c2ccc3[nH]cc(C(=O)NC4CCCC4)c(=O)c3c2)cc1 -37.5%
Cc1ccc(C(=O)CSc2nnc(-c3ccccc3)n2-c2ccccc2)cc1 -2.94%
